Laboratory results reported in the supplement of paper PMC4604168 (melanoma cell lines).
The list shows a part of the results. Repeats are few or missing, and single values can be far off.

Experiments:
Experiment in all cases: cell count relative to DMSO control; melanoma cells; higher = more viable cells
Settings in all cases: library dose: standard library concentration; 72 h
A101D = test system: A101D
A2058 = test system: A2058
A375 = test system: A375
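Note: cells treated in 1,536-well plates, then fixed and DAPI-stained, with nuclei counted from automated high-throughput microscope images.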

CCN(CC)CCNC(=O)c1c(C)[nH]c(/C=C2\C(=O)Nc3ccc(F)cc32)c1C [sunitinib] + CN(NC(=O)CC(=O)NN(C)C(=S)c1ccccc1)C(=S)c1ccccc1 [STA4783] (first compound 2 µM, partner dose 0.03 µM)
cell count (A101D): 38%
cell count (A2058): 3.99%
cell count (A375): 108%

CCN(CC)CCNC(=O)c1c(C)[nH]c(/C=C2\C(=O)Nc3ccc(F)cc32)c1C [sunitinib] + COCC[n+]1c2c(n(Cc3cnccn3)c1C)C(=O)c1ccccc1C2=O [YM155] (first compound 2 µM, partner dose 0.002 µM)
cell count (A101D): 67.7%
cell count (A2058): 20.4%
cell count (A375): 85.8%

C[C@]1(O)C[C@@H](c2nc(-c3ccc4ccc(-c5ccccc5)nc4c3)c3c(N)nccn32)C1 + COc1cc(Nc2ncc(F)c(Nc3ccc4c(n3)NC(=O)C(C)(C)O4)n2)cc(OC)c1OC [Tamatinib] (first compound 2 µM, partner dose 2 µM)
cell count (A101D): 18%
cell count (A2058): 61.4%
cell count (A375): 83.6%

Cn1cnc2c(F)c(Nc3ccc(Br)cc3Cl)c(C(=O)NOCCO)cc21 [selumetinib] + NC(=O)Nc1cc(-c2cccc(F)c2)sc1C(=O)N[C@H]1CCCNC1 [AZD7762] (first compound 0.075 µM, partner dose 0.1 µM)
cell count (A101D): 63.2%
cell count (A2058): 107%
cell count (A375): 60.8%

C[C@]1(O)C[C@@H](c2nc(-c3ccc4ccc(-c5ccccc5)nc4c3)c3c(N)nccn32)C1 + CN(c1ncccc1CNc1nc(Nc2ccc3c(c2)CC(=O)N3)ncc1C(F)(F)F)S(C)(=O)=O [PF562271] (first compound 2 µM, partner dose 0.4 µM)
cell count (A101D): 73.6%
cell count (A2058): 66.9%
cell count (A375): 48.9%

Cn1cnc2c(F)c(Nc3ccc(Br)cc3Cl)c(C(=O)NOCCO)cc21 [selumetinib] + COc1ccc(C2=N[C@@H](c3ccc(Cl)cc3)[C@@H](c3ccc(Cl)cc3)N2C(=O)N2CCNC(=O)C2)c(OC(C)C)c1 [Nutlin-3] (first compound 0.075 µM, partner dose 0.5 µM)
cell count (A101D): 71.1%
cell count (A2058): 92.7%
cell count (A375): 94%

C[C@]1(O)C[C@@H](c2nc(-c3ccc4ccc(-c5ccccc5)nc4c3)c3c(N)nccn32)C1 + CC(C)C[C@H](NC(=O)[C@H](Cc1ccccc1)NC(=O)c1cnccn1)B(O)O [Bortezomib] (first compound 2 µM, partner dose 0.005 µM)
cell count (A101D): 16.4%
cell count (A2058): 12.1%
cell count (A375): 73.4%

C[C@]1(O)C[C@@H](c2nc(-c3ccc4ccc(-c5ccccc5)nc4c3)c3c(N)nccn32)C1 + CO[C@H]1C[C@@H]2CC[C@@H](C)[C@@](O)(O2)C(=O)C(=O)N2CCCC[C@H]2C(=O)O[C@H]([C@H](C)C[C@@H]2CC[C@@H](OCCO)[C@H](OC)C2)CC(=O)[C@H](C)/C=C(\C)[C@@H](O)[C@@H](OC)C(=O)[C@H](C)C[C@H](C)/C=C/C=C/C=C/1C [everolimus] (first compound 2 µM, partner dose 0.1 µM)
cell count (A101D): 72.8%
cell count (A2058): 52.1%
cell count (A375): 66.1%

COc1cc([C@@H]2c3cc4c(cc3[C@@H](O[C@@H]3O[C@@H]5CO[C@@H](C)O[C@H]5[C@H](O)[C@H]3O)[C@H]3COC(=O)[C@H]23)OCO4)cc(OC)c1O [etoposide] + O=C(Nc1cccc(Cl)c1)Nc1ncc(CCNc2ncnc3ccsc23)s1 [SNS314] (first compound 0.1 µM, partner dose 0.004 µM)
cell count (A101D): 73.7%
cell count (A2058): 70.2%
cell count (A375): 66.4%

COc1cc([C@@H]2c3cc4c(cc3[C@@H](O[C@@H]3O[C@@H]5CO[C@@H](C)O[C@H]5[C@H](O)[C@H]3O)[C@H]3COC(=O)[C@H]23)OCO4)cc(OC)c1O [etoposide] + Cc1cc(Nc2cc(N3CCN(C)CC3)nc(/C=C/c3ccccc3)n2)n[nH]1 [ENMD2076] (first compound 0.1 µM, partner dose 0.2 µM)
cell count (A101D): 65.5%
cell count (A2058): 74.9%
cell count (A375): 64%

Cn1cnc2c(F)c(Nc3ccc(Br)cc3Cl)c(C(=O)NOCCO)cc21 [selumetinib] + CC(=O)O[C@@]12CO[C@@H]1C[C@H](O)[C@@]1(C)C(=O)[C@H](O)C3=C(C)[C@@H](OC(=O)[C@H](O)[C@@H](NC(=O)OC(C)(C)C)c4ccccc4)C[C@@](O)([C@@H](OC(=O)c4ccccc4)[C@H]21)C3(C)C [Docetaxel] (first compound 0.075 µM, partner dose 0.0005 µM)
cell count (A101D): 67.5%
cell count (A2058): 13.4%
cell count (A375): 77.1%

COc1cc([C@@H]2c3cc4c(cc3[C@@H](O[C@@H]3O[C@@H]5CO[C@@H](C)O[C@H]5[C@H](O)[C@H]3O)[C@H]3COC(=O)[C@H]23)OCO4)cc(OC)c1O [etoposide] + Clc1ccc(Nc2nnc(Cc3ccncc3)c3ccccc23)cc1 [vatalanib] (first compound 0.1 µM, partner dose 10 µM)
cell count (A101D): 90.7%
cell count (A2058): 55.6%
cell count (A375): 64.2%

COc1cc([C@@H]2c3cc4c(cc3[C@@H](O[C@@H]3O[C@@H]5CO[C@@H](C)O[C@H]5[C@H](O)[C@H]3O)[C@H]3COC(=O)[C@H]23)OCO4)cc(OC)c1O [etoposide] + C[C@]1(O)C[C@@H](c2nc(-c3ccc4ccc(-c5ccccc5)nc4c3)c3c(N)nccn32)C1 [OSI906] (first compound 0.1 µM, partner dose 2 µM)
cell count (A101D): 91.3%
cell count (A2058): 79.2%
cell count (A375): 56.3%

COc1cc([C@@H]2c3cc4c(cc3[C@@H](O[C@@H]3O[C@@H]5CO[C@@H](C)O[C@H]5[C@H](O)[C@H]3O)[C@H]3COC(=O)[C@H]23)OCO4)cc(OC)c1O [etoposide] + Cn1cncc1[C@@](N)(c1ccc(Cl)cc1)c1ccc2c(c1)c(-c1cccc(Cl)c1)cc(=O)n2C [tipifarnib] (first compound 0.1 µM, partner dose 0.05 µM)
cell count (A101D): 89.6%
cell count (A2058): 76.1%
cell count (A375): 78.4%

COc1cc([C@@H]2c3cc4c(cc3[C@@H](O[C@@H]3O[C@@H]5CO[C@@H](C)O[C@H]5[C@H](O)[C@H]3O)[C@H]3COC(=O)[C@H]23)OCO4)cc(OC)c1O [etoposide] + CN(NC(=O)CC(=O)NN(C)C(=S)c1ccccc1)C(=S)c1ccccc1 [STA4783] (first compound 0.1 µM, partner dose 0.03 µM)
cell count (A101D): 66.8%
cell count (A2058): 6.12%
cell count (A375): 85.9%

Cn1cnc2c(F)c(Nc3ccc(Br)cc3Cl)c(C(=O)NOCCO)cc21 [selumetinib] + C[C@]1(c2nc3c(C(N)=O)cccc3[nH]2)CCCN1 [Veliparib] (first compound 0.075 µM, partner dose 7 µM)
cell count (A101D): 90.9%
cell count (A2058): 78.9%
cell count (A375): 71.1%

COc1cc([C@@H]2c3cc4c(cc3[C@@H](O[C@@H]3O[C@@H]5CO[C@@H](C)O[C@H]5[C@H](O)[C@H]3O)[C@H]3COC(=O)[C@H]23)OCO4)cc(OC)c1O [etoposide] + COc1ccc(C2=N[C@@H](c3ccc(Cl)cc3)[C@@H](c3ccc(Cl)cc3)N2C(=O)N2CCNC(=O)C2)c(OC(C)C)c1 [Nutlin-3] (first compound 0.1 µM, partner dose 0.5 µM)
cell count (A101D): 78.9%
cell count (A2058): 82.4%
cell count (A375): 75.4%

COc1cc([C@@H]2c3cc4c(cc3[C@@H](O[C@@H]3O[C@@H]5CO[C@@H](C)O[C@H]5[C@H](O)[C@H]3O)[C@H]3COC(=O)[C@H]23)OCO4)cc(OC)c1O [etoposide] + CC(=O)c1c(C)c2cnc(Nc3ccc(N4CCNCC4)cn3)nc2n(C2CCCC2)c1=O [palbociclib] (first compound 0.1 µM, partner dose 0.2 µM)
cell count (A101D): 74.4%
cell count (A2058): 73.7%
cell count (A375): 48.9%

Cn1cnc2c(F)c(Nc3ccc(Br)cc3Cl)c(C(=O)NOCCO)cc21 [selumetinib] + Nc1cccc2c1CN(C1CCC(=O)NC1=O)C2=O [lenalidomide] (first compound 0.075 µM, partner dose 5 µM)
cell count (A101D): 85.3%
cell count (A2058): 100%
cell count (A375): 92.9%

Cn1cnc2c(F)c(Nc3ccc(Br)cc3Cl)c(C(=O)NOCCO)cc21 [selumetinib] + CNC(=O)c1cc(Oc2ccc(NC(=O)Nc3ccc(Cl)c(C(F)(F)F)c3)cc2)ccn1 [sorafenib] (first compound 0.075 µM, partner dose 2 µM)
cell count (A101D): 70%
cell count (A2058): 86.3%
cell count (A375): 90.2%

COc1cc([C@@H]2c3cc4c(cc3[C@@H](O[C@@H]3O[C@@H]5CO[C@@H](C)O[C@H]5[C@H](O)[C@H]3O)[C@H]3COC(=O)[C@H]23)OCO4)cc(OC)c1O [etoposide] + OCc1c[nH]c2ccccc12 [Indole-3-carbinol] (first compound 0.1 µM, partner dose 4 µM)
cell count (A101D): 98.9%
cell count (A2058): 77.1%
cell count (A375): 66.2%

COc1cc([C@@H]2c3cc4c(cc3[C@@H](O[C@@H]3O[C@@H]5CO[C@@H](C)O[C@H]5[C@H](O)[C@H]3O)[C@H]3COC(=O)[C@H]23)OCO4)cc(OC)c1O [etoposide] + O=C(O)c1ccc2c(c1)nc(Nc1cccc(Cl)c1)c1ccncc12 [CX4945] (first compound 0.1 µM, partner dose 2 µM)
cell count (A101D): 93.9%
cell count (A2058): 70.2%
cell count (A375): 72.3%

COc1cc([C@@H]2c3cc4c(cc3[C@@H](O[C@@H]3O[C@@H]5CO[C@@H](C)O[C@H]5[C@H](O)[C@H]3O)[C@H]3COC(=O)[C@H]23)OCO4)cc(OC)c1O [etoposide] + CN1CCN(c2ccc3nc(-c4c(N)c5c(F)cccc5[nH]c4=O)[nH]c3c2)CC1 [Dovitinib] (first compound 0.1 µM, partner dose 0.5 µM)
cell count (A101D): 68.3%
cell count (A2058): 19.7%
cell count (A375): 62.5%

COc1cc([C@@H]2c3cc4c(cc3[C@@H](O[C@@H]3O[C@@H]5CO[C@@H](C)O[C@H]5[C@H](O)[C@H]3O)[C@H]3COC(=O)[C@H]23)OCO4)cc(OC)c1O [etoposide] + C[C@]1(c2nc3c(C(N)=O)cccc3[nH]2)CCCN1 [Veliparib] (first compound 0.1 µM, partner dose 7 µM)
cell count (A101D): 83.2%
cell count (A2058): 61.9%
cell count (A375): 81.7%
